Like-named read-outs stand apart in the source and are kept apart here. These are yes or no findings as the source states them, for the method shown. In cells and extracts the contact can be indirect. Some binding calls cover weakened binding; strength is not graded here. For part of these data: Where a sequence is shown, tags or fusion partners need not be part of it.

Amino acid sequences for entries named in this document (tags omitted).
UniProt O95166: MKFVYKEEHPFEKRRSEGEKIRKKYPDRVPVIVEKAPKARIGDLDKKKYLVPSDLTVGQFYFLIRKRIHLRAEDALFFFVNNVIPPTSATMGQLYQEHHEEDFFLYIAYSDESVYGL
UniProt O95292: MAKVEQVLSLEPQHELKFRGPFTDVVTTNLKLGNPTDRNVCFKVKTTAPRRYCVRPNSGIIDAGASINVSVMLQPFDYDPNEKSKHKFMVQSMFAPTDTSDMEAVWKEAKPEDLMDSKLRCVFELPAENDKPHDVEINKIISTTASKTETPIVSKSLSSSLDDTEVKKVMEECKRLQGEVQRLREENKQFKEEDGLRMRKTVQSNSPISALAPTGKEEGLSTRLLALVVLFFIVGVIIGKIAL

Test [1] addresses T1, EGFP-CALCOCO1 (full length), expressed in HEK293 cells (UniProt Q9P1Z2).
T1 sequence: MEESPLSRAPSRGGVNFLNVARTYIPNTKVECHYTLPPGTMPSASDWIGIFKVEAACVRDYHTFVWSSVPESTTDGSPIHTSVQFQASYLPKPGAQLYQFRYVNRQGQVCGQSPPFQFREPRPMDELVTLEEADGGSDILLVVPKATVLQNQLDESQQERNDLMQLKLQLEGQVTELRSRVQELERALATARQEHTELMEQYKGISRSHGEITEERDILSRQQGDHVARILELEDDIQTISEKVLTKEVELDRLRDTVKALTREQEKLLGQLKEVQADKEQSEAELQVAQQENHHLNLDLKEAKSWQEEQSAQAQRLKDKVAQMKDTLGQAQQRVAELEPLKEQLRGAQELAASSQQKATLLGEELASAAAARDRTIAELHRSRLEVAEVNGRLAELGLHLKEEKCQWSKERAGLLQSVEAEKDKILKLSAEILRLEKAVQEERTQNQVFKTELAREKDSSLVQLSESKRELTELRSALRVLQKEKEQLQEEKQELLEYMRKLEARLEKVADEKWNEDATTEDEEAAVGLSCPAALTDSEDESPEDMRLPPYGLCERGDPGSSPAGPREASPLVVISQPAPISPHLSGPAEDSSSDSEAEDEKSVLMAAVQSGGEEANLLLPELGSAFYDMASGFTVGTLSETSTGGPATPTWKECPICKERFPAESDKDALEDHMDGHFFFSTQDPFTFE
As to the kind of experiment: co-IP; EGFP-CALCOCO1 and Myc-tagged proteins transiently co-expressed in HEK293 cells; EGFP-CALCOCO1 precipitated with GFP-TRAP from lysates in modified RIPA buffer (50 mM Tris-HCl pH 7.4, 120 mM NaCl, 1 mM EDTA, 1% NP-40, 0.25% Triton X-100), 4 °C; anti-Myc blot.

Test [2] addresses GST-GABARAPL2 (human) (UniProt P60520). Kind of test: pull-down; GST fusion protein from E. coli on Glutathione Sepharose beads; 35S-labelled in vitro translated Myc-tagged protein, precleared, incubated 1 h at 4 °C in NETN buffer (50 mM Tris pH 8.0, 150 mM NaCl, 1 mM EDTA, 0.5% NP-40); five washes; autoradiography; only the target purified.
The target in test [3] is T1, EGFP-CALCOCO1 (full length), expressed in HEK293 cells. Kind of test: co-IP; EGFP-CALCOCO1 and Myc-tagged proteins transiently co-expressed in HEK293 cells; EGFP-CALCOCO1 precipitated with GFP-TRAP from lysates in modified RIPA buffer (50 mM Tris-HCl pH 7.4, 120 mM NaCl, 1 mM EDTA, 1% NP-40, 0.25% Triton X-100), 4 °C; anti-Myc blot. The source holds these as a separate data set.

For test [4], the target named is T2, GFP-CALCOCO1 (full length), in vitro translated (UniProt Q9P1Z2).
T2 sequence (chain, 35S-methionine label): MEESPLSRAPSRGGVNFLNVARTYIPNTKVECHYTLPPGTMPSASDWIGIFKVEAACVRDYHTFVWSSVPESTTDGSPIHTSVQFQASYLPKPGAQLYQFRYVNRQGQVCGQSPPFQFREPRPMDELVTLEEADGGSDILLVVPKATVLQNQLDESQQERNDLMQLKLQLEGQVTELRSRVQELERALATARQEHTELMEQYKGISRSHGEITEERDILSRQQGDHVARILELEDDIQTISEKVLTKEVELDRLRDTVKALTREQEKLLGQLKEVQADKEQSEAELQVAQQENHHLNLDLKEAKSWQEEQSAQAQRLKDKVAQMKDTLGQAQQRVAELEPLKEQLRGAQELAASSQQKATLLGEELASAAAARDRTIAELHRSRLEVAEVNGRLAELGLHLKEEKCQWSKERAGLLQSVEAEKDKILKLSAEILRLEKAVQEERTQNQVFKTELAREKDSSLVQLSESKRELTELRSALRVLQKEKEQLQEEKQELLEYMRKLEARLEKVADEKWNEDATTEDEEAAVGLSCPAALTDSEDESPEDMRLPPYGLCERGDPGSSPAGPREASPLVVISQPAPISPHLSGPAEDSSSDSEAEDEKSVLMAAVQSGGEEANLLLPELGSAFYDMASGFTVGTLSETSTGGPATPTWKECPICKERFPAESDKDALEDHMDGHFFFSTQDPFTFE
Kind of test: co-IP; 35S-GFP-CALCOCO1 co-transcribed/translated in vitro with 35S-Myc constructs; GFP-TRAP immunoprecipitation; SDS-PAGE and autoradiography.

The target in test [5] is GST-GABARAP (human) (UniProt O95166). Kind of test: pull-down; GST-tagged ATG8 family proteins on beads; extracts of cells transiently transfected with Myc-CALCOCO1; anti-Myc blot; only the target purified.
Test [6] deals with GST-GABARAPL2 (human) (UniProt P60520). Described as above.
In a further test the target is GST-LC3C (human) (UniProt Q9BXW4). As to the kind of experiment: pull-down; GST fusion protein from E. coli on Glutathione Sepharose beads; 35S-labelled in vitro translated Myc-tagged protein, precleared, incubated 1 h at 4 °C in NETN buffer (50 mM Tris pH 8.0, 150 mM NaCl, 1 mM EDTA, 0.5% NP-40); five washes; autoradiography; only the target purified.
For test [7], the target named is GST-GABARAP (human) (UniProt O95166). The test is described as above.
Test [8] deals with GST-GABARAPL2 (human) (UniProt P60520). The description is as above. The source holds these as a separate data set.

Take “Myc-VAPB, expressed in HEK293 cells (from UniProt O95292 1-243)”: the binding result in test [1] is listed as “binds”.

With “Myc-p62, in vitro translated (from UniProt Q13501 1-440)”, the binding entry with GST-GABARAPL2 (human) [2] is on record as “binds”.

B1: Myc-CALCOCO1 ∆145–513, expressed in HEK293 cells (protein, UniProt Q9P1Z2)
chain: MEESPLSRAPSRGGVNFLNVARTYIPNTKVECHYTLPPGTMPSASDWIGIFKVEAACVRDYHTFVWSSVPESTTDGSPIHTSVQFQASYLPKPGAQLYQFRYVNRQGQVCGQSPPFQFREPRPMDELVTLEEADGGSDILLVVPKWNEDATTEDEEAAVGLSCPAALTDSEDESPEDMRLPPYGLCERGDPGSSPAGPREASPLVVISQPAPISPHLSGPAEDSSSDSEAEDEKSVLMAAVQSGGEEANLLLPELGSAFYDMASGFTVGTLSETSTGGPATPTWKECPICKERFPAESDKDALEDHMDGHFFFSTQDPFTFE
For B1, the binding result in test [3] was “no binding”.

B2: Myc-CALCOCO1 ∆145–513, in vitro translated (protein, UniProt Q9P1Z2)
chain: MEESPLSRAPSRGGVNFLNVARTYIPNTKVECHYTLPPGTMPSASDWIGIFKVEAACVRDYHTFVWSSVPESTTDGSPIHTSVQFQASYLPKPGAQLYQFRYVNRQGQVCGQSPPFQFREPRPMDELVTLEEADGGSDILLVVPKWNEDATTEDEEAAVGLSCPAALTDSEDESPEDMRLPPYGLCERGDPGSSPAGPREASPLVVISQPAPISPHLSGPAEDSSSDSEAEDEKSVLMAAVQSGGEEANLLLPELGSAFYDMASGFTVGTLSETSTGGPATPTWKECPICKERFPAESDKDALEDHMDGHFFFSTQDPFTFE
modifications: 35S-methionine label
Consider B2, for which the binding result in test [4] is given as “no binding”.

B3: Myc-CALCOCO1 (full length), expressed in cells (protein, UniProt Q9P1Z2 1-691)
chain: MEESPLSRAPSRGGVNFLNVARTYIPNTKVECHYTLPPGTMPSASDWIGIFKVEAACVRDYHTFVWSSVPESTTDGSPIHTSVQFQASYLPKPGAQLYQFRYVNRQGQVCGQSPPFQFREPRPMDELVTLEEADGGSDILLVVPKATVLQNQLDESQQERNDLMQLKLQLEGQVTELRSRVQELERALATARQEHTELMEQYKGISRSHGEITEERDILSRQQGDHVARILELEDDIQTISEKVLTKEVELDRLRDTVKALTREQEKLLGQLKEVQADKEQSEAELQVAQQENHHLNLDLKEAKSWQEEQSAQAQRLKDKVAQMKDTLGQAQQRVAELEPLKEQLRGAQELAASSQQKATLLGEELASAAAARDRTIAELHRSRLEVAEVNGRLAELGLHLKEEKCQWSKERAGLLQSVEAEKDKILKLSAEILRLEKAVQEERTQNQVFKTELAREKDSSLVQLSESKRELTELRSALRVLQKEKEQLQEEKQELLEYMRKLEARLEKVADEKWNEDATTEDEEAAVGLSCPAALTDSEDESPEDMRLPPYGLCERGDPGSSPAGPREASPLVVISQPAPISPHLSGPAEDSSSDSEAEDEKSVLMAAVQSGGEEANLLLPELGSAFYDMASGFTVGTLSETSTGGPATPTWKECPICKERFPAESDKDALEDHMDGHFFFSTQDPFTFE
Take B3: the binding result (with GST-GABARAP (human) [5]; in the test with GST-GABARAPL2 (human) [6]; in test [3]) was “binds” each time.

B4: Myc-CALCOCO1 (full length), in vitro translated (protein, UniProt Q9P1Z2 1-691)
chain: MEESPLSRAPSRGGVNFLNVARTYIPNTKVECHYTLPPGTMPSASDWIGIFKVEAACVRDYHTFVWSSVPESTTDGSPIHTSVQFQASYLPKPGAQLYQFRYVNRQGQVCGQSPPFQFREPRPMDELVTLEEADGGSDILLVVPKATVLQNQLDESQQERNDLMQLKLQLEGQVTELRSRVQELERALATARQEHTELMEQYKGISRSHGEITEERDILSRQQGDHVARILELEDDIQTISEKVLTKEVELDRLRDTVKALTREQEKLLGQLKEVQADKEQSEAELQVAQQENHHLNLDLKEAKSWQEEQSAQAQRLKDKVAQMKDTLGQAQQRVAELEPLKEQLRGAQELAASSQQKATLLGEELASAAAARDRTIAELHRSRLEVAEVNGRLAELGLHLKEEKCQWSKERAGLLQSVEAEKDKILKLSAEILRLEKAVQEERTQNQVFKTELAREKDSSLVQLSESKRELTELRSALRVLQKEKEQLQEEKQELLEYMRKLEARLEKVADEKWNEDATTEDEEAAVGLSCPAALTDSEDESPEDMRLPPYGLCERGDPGSSPAGPREASPLVVISQPAPISPHLSGPAEDSSSDSEAEDEKSVLMAAVQSGGEEANLLLPELGSAFYDMASGFTVGTLSETSTGGPATPTWKECPICKERFPAESDKDALEDHMDGHFFFSTQDPFTFE
modifications: 35S-methionine label
B4: the binding result in test [4] is recorded as “binds”; with GST-LC3C (human) it was “binds weakly”; with GST-GABARAP (human) [7], “binds”; with GST-GABARAPL2 (human) [8], “binds”.

B5: Myc-CALCOCO1 ∆LIR (Δ126–144) Δ641–691, in vitro translated (domain or fragment, UniProt Q9P1Z2)
chain: MEESPLSRAPSRGGVNFLNVARTYIPNTKVECHYTLPPGTMPSASDWIGIFKVEAACVRDYHTFVWSSVPESTTDGSPIHTSVQFQASYLPKPGAQLYQFRYVNRQGQVCGQSPPFQFREPRPMDKATVLQNQLDESQQERNDLMQLKLQLEGQVTELRSRVQELERALATARQEHTELMEQYKGISRSHGEITEERDILSRQQGDHVARILELEDDIQTISEKVLTKEVELDRLRDTVKALTREQEKLLGQLKEVQADKEQSEAELQVAQQENHHLNLDLKEAKSWQEEQSAQAQRLKDKVAQMKDTLGQAQQRVAELEPLKEQLRGAQELAASSQQKATLLGEELASAAAARDRTIAELHRSRLEVAEVNGRLAELGLHLKEEKCQWSKERAGLLQSVEAEKDKILKLSAEILRLEKAVQEERTQNQVFKTELAREKDSSLVQLSESKRELTELRSALRVLQKEKEQLQEEKQELLEYMRKLEARLEKVADEKWNEDATTEDEEAAVGLSCPAALTDSEDESPEDMRLPPYGLCERGDPGSSPAGPREASPLVVISQPAPISPHLSGPAEDSSSDSEAEDEKSVLMAAVQSGGEEANLLLPELGSAFYDMASGFTVGTL
modifications: 35S-methionine label
Regarding B5, the binding entry in the test with GST-GABARAP (human) [7] and with GST-GABARAPL2 (human) [8] was “no binding” each time.

B6: Myc-CALCOCO1 (145–513), expressed in HEK293 cells (domain or fragment, UniProt Q9P1Z2 145-513)
chain: KATVLQNQLDESQQERNDLMQLKLQLEGQVTELRSRVQELERALATARQEHTELMEQYKGISRSHGEITEERDILSRQQGDHVARILELEDDIQTISEKVLTKEVELDRLRDTVKALTREQEKLLGQLKEVQADKEQSEAELQVAQQENHHLNLDLKEAKSWQEEQSAQAQRLKDKVAQMKDTLGQAQQRVAELEPLKEQLRGAQELAASSQQKATLLGEELASAAAARDRTIAELHRSRLEVAEVNGRLAELGLHLKEEKCQWSKERAGLLQSVEAEKDKILKLSAEILRLEKAVQEERTQNQVFKTELAREKDSSLVQLSESKRELTELRSALRVLQKEKEQLQEEKQELLEYMRKLEARLEKVADE
With B6, the binding entry in test [3] is reported as “binds”.

B7: Myc-CALCOCO1 (145–513), in vitro translated (domain or fragment, UniProt Q9P1Z2 145-513)
chain: KATVLQNQLDESQQERNDLMQLKLQLEGQVTELRSRVQELERALATARQEHTELMEQYKGISRSHGEITEERDILSRQQGDHVARILELEDDIQTISEKVLTKEVELDRLRDTVKALTREQEKLLGQLKEVQADKEQSEAELQVAQQENHHLNLDLKEAKSWQEEQSAQAQRLKDKVAQMKDTLGQAQQRVAELEPLKEQLRGAQELAASSQQKATLLGEELASAAAARDRTIAELHRSRLEVAEVNGRLAELGLHLKEEKCQWSKERAGLLQSVEAEKDKILKLSAEILRLEKAVQEERTQNQVFKTELAREKDSSLVQLSESKRELTELRSALRVLQKEKEQLQEEKQELLEYMRKLEARLEKVADE
modifications: 35S-methionine label
Turning to B7, the binding entry in test [4] is listed as “binds”.
